Laboratory results taken from PubChem BioAssay AID1460 (National Center for Advancing Translational Sciences (NCATS), 2008).
In all, about 270,000 compounds went through this assay and about 5,800 (2.1%) were called active. This list was built around the results that the source calls inconclusive (neither active nor inactive); the mix of calls is not that of the screen. Calls come from the whole dose curve; as a rule, active = well fitted inhibition curve with a large enough effect; inconclusive = small, poorly fitted or top-dose-only effect; inactive = flat fitted curve, though single readings scatter. Potencies of inconclusive entries are doubtful fits and often do not repeat.
% is set by controls: 0 for no effect and ±100 for the full control effect; potency is the fitted concentration of half-maximal effect; tags give direction and shape of the fitted curve.
Note: nearly all actives have a fitted effect of over 55% in size.

The compounds below were run against Microtubule-associated protein tau (Homo sapiens) (UniProt P10636) (assay: qHTS for Inhibitors of Tau Fibril Formation, Thioflavin T Binding). Conditions: recombinant tau K18 P301L (four-repeat tau fragment), heparin-induced fibrillization, ThT fluorescence; series mostly up to 57.4 µM.
Sequence of UniProt P10636 (P10636 whole entry, looked up, the tested form may be a part): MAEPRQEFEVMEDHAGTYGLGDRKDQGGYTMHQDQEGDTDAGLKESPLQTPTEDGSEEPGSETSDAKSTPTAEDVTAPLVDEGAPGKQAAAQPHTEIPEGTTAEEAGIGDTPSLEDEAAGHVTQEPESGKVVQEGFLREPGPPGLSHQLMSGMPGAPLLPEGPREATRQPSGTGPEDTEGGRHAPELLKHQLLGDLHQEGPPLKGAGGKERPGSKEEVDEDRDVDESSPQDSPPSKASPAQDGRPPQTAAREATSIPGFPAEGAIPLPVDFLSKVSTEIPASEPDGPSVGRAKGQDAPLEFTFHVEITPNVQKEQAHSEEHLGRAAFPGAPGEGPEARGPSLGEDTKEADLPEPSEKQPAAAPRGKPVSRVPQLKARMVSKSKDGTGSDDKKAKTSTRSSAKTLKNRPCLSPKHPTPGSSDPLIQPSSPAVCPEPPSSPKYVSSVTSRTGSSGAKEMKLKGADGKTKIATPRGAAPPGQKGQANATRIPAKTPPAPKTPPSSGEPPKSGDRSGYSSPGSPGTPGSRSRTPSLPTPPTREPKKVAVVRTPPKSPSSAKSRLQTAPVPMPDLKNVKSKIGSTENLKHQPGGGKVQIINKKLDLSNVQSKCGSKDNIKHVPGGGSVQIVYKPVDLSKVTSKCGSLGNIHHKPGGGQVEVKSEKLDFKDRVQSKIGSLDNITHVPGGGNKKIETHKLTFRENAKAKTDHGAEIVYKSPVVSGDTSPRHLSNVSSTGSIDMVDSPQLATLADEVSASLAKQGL
Text: NIH Molecular Libraries Probe Production Network [MLPCN]
NIH Chemical Genomics Center [NCGC]
Assay Provider: Carlo Ballatore, University of Pennsylvania
The microtubule-associated protein tau is an abundant protein in the axons of neurons that stabilizes microtubules. With its ability to modulate microtubule dynamics, tau contributes directly or indirectly, to key structural and regulatory cellular functions. Particularly important is the influence tau exerts on axonal transport, which allows signaling molecules, trophic factors and other essential cellular constituents to travel along the axons. Under pathological conditions, tau becomes sequestered into insoluble aggregates called neurofibrillary tangles. This phenomenon is believed to have pathological consequences by promoting axonal transport deficits that ultimately lead to synaptic dysfunction and neuronal loss. To identify inhibitors of tau aggregation, a heparin-induced tau fibril formation assay was used that employed a recombinantly expressed fragment of tau, K18 (Q242-E372), bearing a P301L mutation (Gustke et al. 1994; Hong et al. 1998). This assay monitors tau fibrillization by Thioflavin T (ThT) fluorescence.
Gustke, N., B. Trinczek, et al. (1994). "Domains of tau protein and interactions with microtubules." Biochemistry 33(32): 9511-22.
Hong, M., V. Zhukareva, et al. (1998).
Li, W. and V. M. Lee (2006).
von Bergen, M., S. Barghorn, et al. (2001). "Mutations of tau protein in frontotemporal dementia promote aggregation of paired helical filaments by enhancing local beta-structure." J Biol Chem 276(51): 48165-74.
NCGC Assay Protocol Summary:
For screening, 2 uL/well human K18 P301L (15 uM unlabeled and 0.24 uM Alexa 594-labeled tau, final concentrations) in reagent buffer (100 mM sodium acetate pH 7) was dispensed into black solid 1536-well plates (Grenier) using a solenoid-based dispenser. Following transfer of 23 nL compound or DMSO vehicle by a pin tool, 2 uL/well heparin (20 uM final concentration) in reagent buffer was added and the plate centrifuged 15 s at 1000 RPM. Plates were incubated 6 hr at 37 C and then 1 uL/well ThT (30 uM final concentration) was added. After a 1 hr ambient incubation, the plates were read by an Envision (Perkin Elmer) to monitor ThT fluorescence (450/8 nm excitation and 510/23 nm emission).
Keywords: NIH Roadmap, MLPCN, MLI, MLSMR, NCGC, qHTS, tau, tauopathies, Alzheimer's disease, fibril, neurodegeneration, aggregation
In the case of `c1ccc(-c2nc(Sc3ncnc4c3cnn4-c3ccccc3)n[nH]2)cc1`, the Potency is reported as inconclusive: 12.6 µM [inhibitor, partial curve].
In the case of `COc1ccc(Cn2c(CCC(=O)Nc3cccc(Cl)c3)nc3cccnc32)cc1`, the Potency is reported as “inactive”.
`COc1ccc2c(c1)-c1nc(NC(=O)c3cccs3)sc1CC2` was tested, and the Potency was inconclusive: 17.8 µM [inhibitor, partial curve].
In the case of `CC(C)(C)c1ccc(/C=C/C(=O)N2CCc3ccccc3C2)cc1`, the Potency is reported as inconclusive: 17.8 µM [inhibitor, partial curve].
For `CCOC(=O)Cc1ccc(NC(=O)c2ccccc2Br)cc1`, the Potency was “inactive”.
With `CCc1cccc(CC)c1NC(=O)C1CN(S(=O)(=O)c2ccccc2)CCN1S(=O)(=O)c1ccccc1` (configuration not stated) the Potency was “inactive”.
With `O=C(Nc1ccccc1)Nc1nnc(CSCc2ccccc2Cl)s1` the Potency was “inactive”.
`CCOc1ccc(C2=Nn3c(nnc3-c3cccnc3)SC2)cc1` was tested, and the Potency was inconclusive: 28.2 µM [inhibitor, single point].
For `O=C(COc1ncnc2c1cnn2-c1ccccc1)Nc1ccc(S(=O)(=O)N2CCCCC2)cc1`, the Potency was “inactive”.
`CN(C)C(=O)c1ccccc1Sc1ccc(Cl)cc1Cl` was tested, and the Potency was inconclusive: 39.8 µM [inhibitor, single point].
In the case of `Cc1ccc(Cn2cc3c(n2)-c2c(oc(C(=O)Nc4ccc(F)cc4F)c2C)CC3)cc1`, the Potency is reported as “inactive”.
With `Cn1c2c(c(=O)n(C)c1=O)C(c1ccccc1F)C(C#N)=C(N)O2` (configuration not stated) the Potency was active: 20 µM.
In the case of `CC(C)(C)c1ccc(S(=O)(=O)N2CC(=O)Nc3ccccc32)cc1`, the Potency is reported as “inactive”.
In the case of `CCC(=O)Nc1ccc(OCc2nc3ccccc3s2)cc1`, the Potency is reported as inconclusive: 10 µM [inhibitor, partial curve].
For `Fc1ccc(-c2ccc(-c3nn4c(-c5ccco5)nnc4s3)o2)cc1`, the Potency was inconclusive: 8.91 µM [inhibitor, partial curve].
With `Cc1cc(-c2ccccc2)nc2cc(C(=O)Nc3cc(C(F)(F)F)ccc3Cl)nn12` the Potency was “inactive”.
For `CCC/C(=N/NC(=O)c1cccc(Cl)c1)c1ccccc1`, the Potency was inconclusive: 12.6 µM [inhibitor, partial curve].
With `C[C@@H]1CC=C[C@H]2[C@H]1C(=O)N(Cc1ccccc1)[C@H]2c1ccc(-c2ccc(N(C)C)cc2)cc1F` the Potency was inconclusive: 3.98 µM [inhibitor, full curve, poor fit].
In the case of `CSc1ccccc1-c1nnc(-c2ccccc2)o1`, the Potency is reported as inconclusive: 17.8 µM [inhibitor, partial curve].
For `Cc1cccc(Nc2cc(C)nc3nc(Cc4ccc(Cl)cc4)nn23)c1`, the Potency was inconclusive: 15.8 µM [inhibitor, partial curve].
In the case of `Clc1ccc2[nH]c(-c3ccccc3)cc2c1`, the Potency is reported as inconclusive: 12.6 µM [activator, partial curve].
With `COc1ccc2ccc3c(c2c1)N=C[C@]1(O3)N(C)c2ccccc2C1(C)C` the Potency was active: 20 µM.
With `Cc1cc(C(=O)N/N=C/c2cc(Br)cc(Br)c2OC(=O)c2cccc(F)c2)n[nH]1` the Potency was inconclusive: 2.51 µM [inhibitor, partial curve].
`COc1ccccc1CNN` was tested, and the Potency was inconclusive: 35.5 µM [inhibitor, single point].
In the case of `N#Cc1nc(/C=C/c2ccc(F)cc2)oc1N1CCCCC1`, the Potency is reported as inconclusive: 15.8 µM [inhibitor, partial curve].
With `COc1ccc2nc(Sc3c([N+](=O)[O-])nc(C)n3Cc3ccccc3)[nH]c2c1` the Potency was inconclusive: 25.1 µM [inhibitor, partial curve].
For `CCC(=O)NC(=S)Nc1cccc(Cl)c1N1CCCC1`, the Potency was “inactive”.
`COc1ccc(N2CCN(C(=S)NC(C)c3ccccc3)CC2)cc1` (configuration not stated) was tested, and the Potency was inconclusive: 11.2 µM [inhibitor, partial curve].
`O=C(Nc1ccc2nn(-c3ccccc3)nc2c1)c1ccc2c(c1)OCCO2` was tested, and the Potency was inconclusive: 0.501 µM [inhibitor, full curve].
`CN(/N=C/c1ccc([N+](=O)[O-])o1)c1ccccc1` was tested, and the Potency was active: 7.08 µM.
For `CCOc1ccccc1CNC(=O)c1ccc2nc(CCc3ccccc3)oc2c1`, the Potency was inconclusive: 10 µM [inhibitor, partial curve, poor fit].
With `CO[C@@H]1COC(=O)C/C=C\[C@@H](C)[C@H](OC)COC(=O)[C@H](COCc2ccccc2)NC(=O)C/C=C\[C@H]1C` the activity, negative = inhibition was inactive: -6.76% [at 11.5 µM].
In the case of `COc1cc(OC)c(NC(=O)CSCc2nc(-c3ccc(OC)c(OC)c3)no2)cc1Cl`, the Potency is reported as “inactive”.
With `COC(=O)C[C@@H]1O[C@H]1[C@H](C)[C@@H](OC)C(C)C` the Potency was inconclusive: 7.94 µM [inhibitor, single point].
`O=C(NC1CC1)C1CCN(C2CCN(C(=O)CC3=CCCCC3)CC2)CC1` was tested, and the Potency was “inactive”.
For `Cc1ccc(CSCC(=O)Nc2ccc3c(c2)OCO3)cc1`, the Potency was “inactive”.
With `O=c1[nH]c(CSc2nc3ccccc3s2)nc2ccccc12` the Potency was inconclusive: 39.8 µM [inhibitor, single point].
With `COc1ccc(OCC(=O)Nc2ccc(N3CCOCC3)c(Cl)c2)cc1` the Potency was inconclusive: 7.94 µM [inhibitor, partial curve].
In the case of `O=C(NCc1ccc(Cl)cc1)c1cc2c(nc3sccn32)s1`, the Potency is reported as inconclusive: 17.8 µM [inhibitor, single point].
For `COc1ccc(-c2cc(OC(=O)c3ccc(F)cc3)c3c(C)oc(C)c3c(=O)c2)cc1`, the Potency was inconclusive: 20 µM [inhibitor, partial curve].
For `O=C(NCCO)c1ccc(Oc2ccc(C(F)(F)F)cc2[N+](=O)[O-])cc1`, the Potency was “inactive”.
`CC(C)N1CCc2c(sc(NC(=S)NC(=O)c3ccccc3)c2C#N)C1` was tested, and the Potency was inconclusive: 14.1 µM [inhibitor, partial curve].
`C=CCn1cnc2c(c1=O)c1nc3ccccc3nc1n2/N=C/c1cccc(OC)c1` was tested, and the Potency was “inactive”.
For `CCOC(=S)SCC(=O)Nc1nc(-c2ccc(Br)cc2)cs1`, the Potency was “inactive”.
For `Cc1cc(/C=C2\SC(=S)NC2=O)c(C)n1-c1cccc(O)c1`, the Potency was active: 15.8 µM.
In the case of `COc1cccc(Nc2ccc(-n3ccnc3)nn2)c1`, the Potency is reported as “inactive”.
In the case of `CCn1c(-c2ccc(-c3ccccc3)cc2)c[nH]c1=S`, the Potency is reported as inconclusive: 20 µM [inhibitor, partial curve, poor fit].
